Results published in PubChem BioAssay AID360 (National Center for Advancing Translational Sciences (NCATS), 2006).
Hit rate of the full screen: of about 48,000 compounds, about 550 (1.1%) were called active. Inconclusive results (about 4%) are left out. Rule as the data show it: active = potency below about 15 µM; inconclusive = mostly about 16 µM to 33 µM; inactive = weaker than that. Some of the results follow.

target: Lysosomal acid glucosylceramidase (Homo sapiens) (UniProt P04062); assay: Glucocerebrosidase; conditions: purified enzyme, resorufin glucoside fluorescence (screen aimed at inhibitors), 20 min;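 also: the screen sought inhibitors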
Sequence of UniProt P04062 (P04062 whole entry, looked up): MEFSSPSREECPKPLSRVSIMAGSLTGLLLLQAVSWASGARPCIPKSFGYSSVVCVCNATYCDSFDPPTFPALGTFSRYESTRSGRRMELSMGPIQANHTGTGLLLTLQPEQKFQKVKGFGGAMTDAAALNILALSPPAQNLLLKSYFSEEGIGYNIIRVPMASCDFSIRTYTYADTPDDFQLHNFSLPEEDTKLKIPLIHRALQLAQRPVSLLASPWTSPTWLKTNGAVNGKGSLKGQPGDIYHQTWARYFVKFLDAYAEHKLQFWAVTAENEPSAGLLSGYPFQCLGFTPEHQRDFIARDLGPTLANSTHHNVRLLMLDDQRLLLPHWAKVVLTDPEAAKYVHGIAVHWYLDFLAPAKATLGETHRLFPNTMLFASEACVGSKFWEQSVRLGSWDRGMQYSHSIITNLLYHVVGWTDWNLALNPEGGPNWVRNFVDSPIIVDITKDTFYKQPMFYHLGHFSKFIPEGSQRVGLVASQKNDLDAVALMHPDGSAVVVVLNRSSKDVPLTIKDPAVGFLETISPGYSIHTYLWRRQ
In short: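 Wild-type enzyme at 0.2 nM final in 50mM citric acid/KH2PO4, 10mM sodium taurocholate, 0.01% tween-20, pH 5.9, with resorufin beta-D-glucopyranoside at 30 uM final. Compounds titrated, 20 min at RT, red fluorescence read; AC50 from titration.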
Potency is read from the fitted curve at half-maximal effect.

Potency, inactive:
COc1ccc2cc(C(c3nnnn3Cc3ccccc3)N3CCCCCC3)c(=O)[nH]c2c1 (configuration not stated) > 76.9 µM
COc1cc(OC)cc(C(=O)N2CCN(C(=O)COc3ccc4ccccc4c3)CC2)c1 > 76.9 µM
Cc1cc(NC(=O)CCC(=O)N(c2cccnc2)C(C(=O)NC2CCCC2)c2ccccc2)no1 (configuration not stated) > 76.9 µM
Cc1cc(NC(=O)CCC(=O)N(c2ccccc2)C(C(=O)NC2CCCC2)c2cccs2)no1 (configuration not stated) > 76.9 µM
O=C1c2ccccc2CC1Sc1nnc(-c2ccccn2)o1 (configuration not stated) > 76.9 µM
CCOC(=O)N1CCN(C(=O)c2cnc(Nc3ccccc3OC)c3ccccc23)CC1 > 76.9 µM
Cc1cccc2nc(Cn3c(=O)n(CCC(=O)NCc4ccco4)c(=O)c4sccc43)cc(=O)n12 > 76.9 µM
Cc1ccc2oc(NC(=O)N3CCOCC3)cc(=O)c2c1 > 76.9 µM
CCOC(=O)c1ccc2c(c1)C1C=CCC1C(C(=O)O)N2 (configuration not stated) > 76.9 µM
Cc1cc(C(=O)N2CCN(c3ncccn3)CC2)c2cc(F)ccc2n1 > 76.9 µM
O=S1(=O)CCN2C=C(Br)C=C(Br)C2=N1 > 76.9 µM
CC(C)(C)C(=O)OCC1OC(n2cnc(C(N)=O)n2)C(O)C1O (configuration not stated) > 76.9 µM
CCOc1ccc(N2C(=O)CC(N3CCN(c4ccc(C(=O)c5ccncc5)cc4)CC3)C2=O)cc1 (configuration not stated) > 76.9 µM
CCOc1ncccc1C(=O)NCC1COc2ccccc2O1 (configuration not stated) > 76.9 µM
O=C(NCCc1ccc(Cl)cc1)c1ncn[nH]1 > 76.9 µM
CN1CCc2c(sc3c2C(=O)NC(c2ccco2)N3)C1 (configuration not stated) > 76.9 µM
O=C(Nc1ccc(Cl)cc1C(=O)NCC1CCCO1)c1ccco1 (configuration not stated) > 76.9 µM
Cc1ccnc(NS(=O)(=O)c2cccc3nsnc23)c1 > 76.9 µM
CCOC(=O)N1CCN(c2cc3nccnc3cc2F)CC1 > 76.9 µM
CC(C)CN(C(=O)COC(=O)Cn1cnc2ccccc2c1=O)C1CCS(=O)(=O)C1 (configuration not stated) > 76.9 µM
CCOc1ccc(NS(=O)(=O)c2ccc(OCC(=O)N3CCCC3)cc2)cc1 > 76.9 µM
CCn1c(SCC(=O)NCCc2ccccc2)nnc1-c1ccco1 > 76.9 µM
COc1ccc(C2C(C(=O)N3CCN(c4ccccc4)CC3)c3ccccc3C(=O)N2C)cc1OC (configuration not stated) > 76.9 µM
Cc1c(-c2ccccc2)[n+](=O)c(-c2ccco2)c(C)n1[O-] > 76.9 µM
COC(=O)c1nn(-c2c(C)n(C)n(-c3ccccc3)c2=O)cc1O > 76.9 µM
COCC(=O)Nc1ccc(N(C)C)cc1 > 76.9 µM
CCOC(=O)N1CCC(NCCNC(=O)c2ccccc2)CC1 > 76.9 µM
COCCn1nnnc1CN1CCC(Cc2ccccc2)CC1 > 76.9 µM
CCOC(=O)N1CCN(C(=O)CSCc2nc(-c3ccccc3F)oc2C)CC1 > 76.9 µM
NS(=O)(=O)c1ccc(CCNC(=O)C2CCCCN2S(=O)(=O)c2ccccc2)cc1 (configuration not stated) > 76.9 µM
CCOc1cccc2cc(-c3nnc(NCc4ccco4)s3)c(=O)oc12 > 76.9 µM
CN(CCCNC(=O)c1cccc(N2CCCC2=O)c1)c1ccccc1 > 76.9 µM
Cc1c(NC(=O)NC(C)N2C(=O)C3C4C=CC(C4)C3C2=O)c(=O)n(-c2ccccc2)n1C (configuration not stated) > 76.9 µM
COCc1nnc(NC(=O)CCCOc2ccccc2OC)s1 > 76.9 µM
COc1ccc(NC(=O)C2CCCN2C(=O)NCc2ccccc2)c(OC)c1 (configuration not stated) > 76.9 µM
CCOC(=O)C1C(=O)Nc2nc3ccccc3n2C1C(C)C (configuration not stated) > 76.9 µM
CCOc1ccc(NS(=O)(=O)c2ccc(OCC(=O)NCCCOC)cc2)cc1 > 76.9 µM
Clc1ccccc1-c1nn2c(COc3ccccc3)nnc2s1 > 76.9 µM
O=C(O)CSc1nc(-c2ccccc2)nc2c1oc1ccccc12 > 76.9 µM
CC1CCCC(NC(=O)CN2CCN(Cc3ccc(Cl)cc3)C2=O)C1C (configuration not stated) > 76.9 µM
Cc1cccc(NC(=O)CCN2C(=O)C3C4C=CC(C4)C3C2=O)n1 (configuration not stated) > 76.9 µM
O=C(O)c1ccc(OC(F)(F)C(F)C(F)(F)F)cc1 (configuration not stated) > 76.9 µM
COc1ccc(NC(=O)Nc2cc(C)ccc2OC(F)F)c(OC)c1 > 76.9 µM
N#CCCn1ncn(-c2ccccc2)c1=S > 76.9 µM
CCc1cc(=O)oc2cc(OCc3nn[nH]n3)ccc12 > 76.9 µM
CCOC(=O)C1=C(O)C(Nc2nccs2)(C(F)(F)F)N=C1C (configuration not stated) > 76.9 µM
COC(=O)C1=CN(C(C)C)C=C(C(=O)OC)C1c1cc2c(cc1Br)OCO2 > 76.9 µM
COc1ccc(CCNC(=O)CCN2C(=O)C3CC=CCC3C2=O)cc1OC (configuration not stated) > 76.9 µM
CCCCCn1c(=NC(C)=O)c(C#N)cc2c(=O)n3cccc(C)c3nc21 > 76.9 µM
Cn1c(SCc2nc3ccccc3[nH]2)nnc1-c1cccnc1 > 76.9 µM
O=C(NC1=NCCS1)c1ccc2c(c1)C(=O)N(Cc1ccco1)C2=O > 76.9 µM
CCOC(=O)C1=C(C)Nc2ncnn2C1c1ccc2c(c1)OCO2 (configuration not stated) > 76.9 µM
COc1ccccc1NC(=O)Nc1ncccc1C > 76.9 µM
COc1ccccc1NC(=O)CN1CCN(CC(=O)Nc2ccc3c(c2)OCCO3)CC1
CC(=O)c1c(COC(=O)c2ccco2)nc2ccccc2[n+]1[O-] > 76.9 µM
Cn1c(=O)c2c(ncn2CCCNC2=CC(C)(C)CC(=O)C2)n(C)c1=O > 76.9 µM
CC(Oc1ccc(C(=O)NC2CCCCC2)cc1)C(=O)O (configuration not stated) > 76.9 µM
